{"source": "the supplement of paper PMC8728848", "assay_in_all_cases": "glycan array binding signal (z-score within array); higher = stronger binding", "conditions_in_all_cases": "glycan notation: IUPAC condensed, linker removed", "key": {"[1]": {"target": "Fuc(a1-2)Gal(b1-4)GlcNAc(b1-3)Gal(b1-4)GlcNAc(b1-2)Man(a1-3)[Fuc(a1-2)Gal(b1-4)GlcNAc(b1-3)Gal(b1-4)GlcNAc(b1-2)Man(a1-6)]Man(b1-4)GlcNAc(b1-4)GlcNAc", "summary_of_the_method": "(§1)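 Columns mapping to the same glycan were averaged after glycan names were converted to IUPAC-condensed notation. The data come from 3228 arrays in the Consortium for Functional Glycomics database, limited to those with an available protein sequence. Binding is reported as a within-array Z-score averaged across arrays of one protein sequence and across linkers.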"}, "[2]": {"target": "Fuc(a1-2)Gal(b1-4)GlcNAc(b1-3)Gal(b1-4)GlcNAc(b1-3)Gal(b1-4)GlcNAc", "summary_of_the_method": "as §1"}, "[3]": {"target": "Fuc(a1-2)Gal(b1-4)GlcNAc(b1-3)GalNAc", "summary_of_the_method": "as §1"}, "[4]": {"target": "Fuc(a1-2)Gal(b1-4)GlcNAc(b1-3)[Fuc(a1-2)Gal(b1-4)GlcNAc(b1-6)]GalNAc", "summary_of_the_method": "as §1"}, "[5]": {"target": "Fuc(a1-2)Gal(b1-4)GlcNAc(b1-3)[Fuc(a1-3)[Gal(b1-4)]GlcNAc(b1-6)]Gal(b1-4)Glc", "summary_of_the_method": "as §1"}, "[6]": {"target": "Fuc(a1-2)Gal(b1-4)GlcNAc(b1-6)GalNAc", "summary_of_the_method": "as §1"}, "[7]": {"target": "Fuc(a1-2)Gal(b1-4)GlcNAc6S", "summary_of_the_method": "as §1"}, "[8]": {"target": "Fuc(a1-2)Gal(b1-4)[Fuc(a1-3)]GlcNAc", "summary_of_the_method": "as §1"}, "[9]": {"target": "Fuc(a1-2)Gal(b1-4)[Fuc(a1-3)]GlcNAc(b1-2)Man(a1-3)[Fuc(a1-2)Gal(b1-4)[Fuc(a1-3)]GlcNAc(b1-2)Man(a1-6)]Man(b1-4)GlcNAc(b1-4)[Fuc(a1-6)]GlcNAc", "summary_of_the_method": "as §1"}, "[10]": {"target": "Fuc(a1-2)Gal(b1-4)[Fuc(a1-3)]GlcNAc(b1-2)[Fuc(a1-2)Gal(b1-4)[Fuc(a1-3)]GlcNAc(b1-4)]Man(a1-3)[Fuc(a1-2)Gal(b1-4)[Fuc(a1-3)]GlcNAc(b1-2)Man(a1-6)]Man(b1-4)GlcNAc(b1-4)GlcNAc", "summary_of_the_method": "as §1"}, "[11]": {"target": "Fuc(a1-2)Gal(b1-4)[Fuc(a1-3)]GlcNAc(b1-3)Gal(b1-4)[Fuc(a1-3)]GlcNAc", "summary_of_the_method": "as §1"}, "[12]": {"target": "Fuc(a1-2)Gal(b1-4)[Fuc(a1-3)]GlcNAc(b1-3)Gal(b1-4)[Fuc(a1-3)]GlcNAc(b1-3)Gal(b1-4)[Fuc(a1-3)]GlcNAc", "summary_of_the_method": "as §1"}, "[13]": {"target": "Fuc(a1-2)Gal(b1-4)[Fuc(a1-3)]GlcNAc(b1-3)GalNAc", "summary_of_the_method": "as §1"}, "[14]": {"target": "Fuc(a1-2)Gal(b1-4)[Fuc(a1-3)]GlcNAc(b1-3)[Neu5Ac(a2-6)Gal(b1-4)GlcNAc(b1-6)]Gal(b1-4)Glc", "summary_of_the_method": "as §1"}, "[15]": {"target": "Fuc(a1-2)Gal3S(b1-4)GlcNAc", "summary_of_the_method": "as §1"}, "[16]": {"target": "Fuc(a1-2)Gal6S(b1-3)GlcNAc", "summary_of_the_method": "as §1"}, "[17]": {"target": "Fuc(a1-2)Gal6S(b1-3)GlcNAc6S", "summary_of_the_method": "as §1"}, "Fuc(a1-2)Gal6S(b1-4)Glc": {"target": "Fuc(a1-2)Gal6S(b1-4)Glc", "summary_of_the_method": "as §1"}, "[18]": {"target": "Fuc(a1-2)Gal6S(b1-4)Glc6S", "summary_of_the_method": "as §1"}, "Fuc(a1-2)[Gal(a1-3)]Gal": {"target": "Fuc(a1-2)[Gal(a1-3)]Gal", "summary_of_the_method": "as §1"}, "[19]": {"target": "Fuc(a1-2)[Gal(a1-3)]Gal(b1-3)GalNAc", "summary_of_the_method": "as §1"}, "[20]": {"target": "Fuc(a1-2)[Gal(a1-3)]Gal(b1-3)GalNAc(b1-3)Gal(a1-4)Gal(b1-4)Glc", "summary_of_the_method": "as §1"}, "[21]": {"target": "Fuc(a1-2)[Gal(a1-3)]Gal(b1-3)GlcNAc", "summary_of_the_method": "as §1"}, "[22]": {"target": "Fuc(a1-2)[Gal(a1-3)]Gal(b1-3)GlcNAc(b1-2)Man(a1-3)[Fuc(a1-2)[Gal(a1-3)]Gal(b1-3)GlcNAc(b1-2)Man(a1-6)]Man(b1-4)GlcNAc(b1-4)GlcNAc", "summary_of_the_method": "as §1"}, "[23]": {"target": "Fuc(a1-2)[Gal(a1-3)]Gal(b1-3)GlcNAc(b1-2)Man(a1-3)[Fuc(a1-2)[Gal(a1-3)]Gal(b1-3)GlcNAc(b1-2)Man(a1-6)]Man(b1-4)GlcNAc(b1-4)[Fuc(a1-6)]GlcNAc", "summary_of_the_method": "as §1"}, "[24]": {"target": "Fuc(a1-2)[Gal(a1-3)]Gal(b1-3)GlcNAc(b1-3)GalNAc", "summary_of_the_method": "as §1"}, "[25]": {"target": "Fuc(a1-2)[Gal(a1-3)]Gal(b1-3)GlcNAc(b1-6)GalNAc", "summary_of_the_method": "as §1"}, "[26]": {"target": "Fuc(a1-2)[Gal(a1-3)]Gal(b1-4)Glc", "summary_of_the_method": "as §1"}, "[27]": {"target": "Fuc(a1-2)[Gal(a1-3)]Gal(b1-4)GlcNAc", "summary_of_the_method": "as §1"}, "[28]": {"target": "Fuc(a1-2)[Gal(a1-3)]Gal(b1-4)GlcNAc(b1-2)Man", "summary_of_the_method": "as §1"}}, "note": "Some of the results follow.", "data": [{"binder": "Epa3 (Candida glabrata), Q6VBI8_CANGB (protein) MGSSHHHHHHSSGLVPRGSHMNDLGFSLFEKRELSSQNPFGYPIGCSPQDVAIIPGLTMELYSYPIVSGTPPNCYDASYVDPEYPRTGYLKRKMVGKSTGVTGNLNYKYSVEKACMVKYGNLPAGYNYNEPLTVSNFTMILYGYFKAQTTGLHTFFVNADDLLYINFGAGNAFDCCKREDSKTKLGEYVAYDIWHVDSSKNKVSLFLEKDLYYPIRMFFNNIGKDSSLDLSFSVNGATDQISDFSGYLYSVPDQPDTCPAHIGYDTTCR", "values": [{"measurement": "glycan array binding signal (z-score)", "setting": "[1]", "value": 0.01}, {"measurement": "glycan array binding signal (z-score)", "setting": "[2]", "value": -0.268}, {"measurement": "glycan array binding signal (z-score)", "setting": "[3]", "value": 0.172}, {"measurement": "glycan array binding signal (z-score)", "setting": "[4]", "value": -0.133}, {"measurement": "glycan array binding signal (z-score)", "setting": "[5]", "value": -0.289}, {"measurement": "glycan array binding signal (z-score)", "setting": "[6]", "value": 0.068}, {"measurement": "glycan array binding signal (z-score)", "setting": "[7]", "value": -0.21}, {"measurement": "glycan array binding signal (z-score)", "setting": "[8]", "value": -0.32}, {"measurement": "glycan array binding signal (z-score)", "setting": "[9]", "value": 0.042}, {"measurement": "glycan array binding signal (z-score)", "setting": "[10]", "value": 0.047}, {"measurement": "glycan array binding signal (z-score)", "setting": "[11]", "value": -0.018}, {"measurement": "glycan array binding signal (z-score)", "setting": "[12]", "value": 0.299}, {"measurement": "glycan array binding signal (z-score)", "setting": "[13]", "value": 0.718}, {"measurement": "glycan array binding signal (z-score)", "setting": "[14]", "value": -0.262}, {"measurement": "glycan array binding signal (z-score)", "setting": "[15]", "value": -0.154}, {"measurement": "glycan array binding signal (z-score)", "setting": "[16]", "value": -0.369}, {"measurement": "glycan array binding signal (z-score)", "setting": "[17]", "value": 0.201}, {"measurement": "glycan array binding signal (z-score)", "setting": "Fuc(a1-2)Gal6S(b1-4)Glc", "value": -0.079}, {"measurement": "glycan array binding signal (z-score)", "setting": "[18]", "value": 0.004}, {"measurement": "glycan array binding signal (z-score)", "setting": "Fuc(a1-2)[Gal(a1-3)]Gal", "value": -0.005}, {"measurement": "glycan array binding signal (z-score)", "setting": "[19]", "value": -0.246}, {"measurement": "glycan array binding signal (z-score)", "setting": "[20]", "value": -0.278}, {"measurement": "glycan array binding signal (z-score)", "setting": "[21]", "value": -0.212}, {"measurement": "glycan array binding signal (z-score)", "setting": "[22]", "value": -0.265}, {"measurement": "glycan array binding signal (z-score)", "setting": "[23]", "value": -0.254}, {"measurement": "glycan array binding signal (z-score)", "setting": "[24]", "value": -0.333}, {"measurement": "glycan array binding signal (z-score)", "setting": "[25]", "value": -0.275}, {"measurement": "glycan array binding signal (z-score)", "setting": "[26]", "value": 0.169}, {"measurement": "glycan array binding signal (z-score)", "setting": "[27]", "value": -0.242}, {"measurement": "glycan array binding signal (z-score)", "setting": "[28]", "value": -0.148}]}]}
